Results as given in PubChem BioAssay AID1745853 (National Center for Advancing Translational Sciences (NCATS), 2022).
“And” between values parts separate entries of the source, which are not always exact repeats. Equal values may be shown once. The list shows a part of the results. Shown are side measurements of this screen, not its main read-out; they come without a call.

How the values were obtained:
Experiment in all cases: Primary Screen for Target Class Profiling of Small Molecule Inhibitors of Methyltransferases
[1] = molecular target: Glycine N-methyltransferase (Homo sapiens) (UniProt Q14749); details: purified enzyme, MTase-Glo SAH luminescence; measured here: GNMT inhibition; at 40 µM; stronger effect = lower value
Summary of the method: (§1)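 Each enzyme was assayed with SAM and its substrate. SAH formation detected by MTase-Glo luminescence; single-point 40 uM screen[…].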

[2] = molecular target: Guanidinoacetate N-methyltransferase (Homo sapiens) (UniProt Q14353); details: purified enzyme, MTase-Glo SAH luminescence; measured here: GAMT inhibition; at 40 µM; stronger effect = lower value
Summary of the method: as §1

[3] = molecular target: Histamine N-methyltransferase (Homo sapiens) (UniProt P50135); details: purified enzyme, MTase-Glo SAH luminescence; measured here: HNMT inhibition; at 40 µM; stronger effect = lower value
Summary of the method: as §1

[4] = molecular target: Nicotinamide N-methyltransferase (Homo sapiens) (UniProt P40261); details: purified enzyme, MTase-Glo SAH luminescence; measured here: NNMT inhibition; at 40 µM; stronger effect = lower value
Summary of the method: as §1

[5] = molecular target: Phenylethanolamine N-methyltransferase (Homo sapiens) (UniProt P11086); details: purified enzyme, MTase-Glo SAH luminescence; measured here: PNMT inhibition; at 40 µM; stronger effect = lower value
Summary of the method: as §1
% is set by controls: 0 for no effect and ±100 for the full control effect.

Structure (SMILES): CCn1ccnc1CN(C)c1cc(C2CC(N)C2)nc(COC)n1 (stereo not drawn)
- activity change, negative = inhibition [1]: -7.59%
- activity change, negative = inhibition [2]: -15.8%
- activity change, negative = inhibition [3]: -13.5%
- activity change, negative = inhibition [4]: -17.2%
- activity change, negative = inhibition [5]: -6.27%

Structure (SMILES): Cc1c(Cl)cccc1NS(=O)(=O)c1ccc2[nH]c3c(c2c1)CCCC3
- activity change, negative = inhibition [1]: -5.96%
- activity change, negative = inhibition [2]: 1.54%
- activity change, negative = inhibition [3]: -4.59%
- activity change, negative = inhibition [4]: -28.3%
- activity change, negative = inhibition [5]: -2.8%

Structure (SMILES): CC1CCCCC1NC(=O)C1(C)Cn2c(cc3occc32)C(=O)N1Cc1ccccc1Cl (stereo not drawn)
- activity change, negative = inhibition [1]: 5.53%
- activity change, negative = inhibition [2]: 0%
- activity change, negative = inhibition [3]: 5.93%
- activity change, negative = inhibition [4]: 3.63%
- activity change, negative = inhibition [5]: 2.23%

Structure (SMILES): CC(C)(C)C(=O)Oc1ccc(S(=O)(=O)Nc2ccccc2C(=O)NCC(=O)O)cc1
- activity change, negative = inhibition [1]: 4.45%
- activity change, negative = inhibition [2]: 12.4%
- activity change, negative = inhibition [3]: 8.4%
- activity change, negative = inhibition [4]: -3.82%
- activity change, negative = inhibition [5]: 3.08%

Structure (SMILES): CN1C(=O)c2cc(C(=O)NCCN3CCCCC3)nn2CC1(C)C(=O)NC1CCCCCC1 (stereo not drawn)
- activity change, negative = inhibition [1]: 4.35%
- activity change, negative = inhibition [2]: 0%
- activity change, negative = inhibition [3]: 0.28%
- activity change, negative = inhibition [4]: 9.77%
- activity change, negative = inhibition [5]: 0.734%

Structure (SMILES): Cc1cc(C)c(-n2cc(C)c3c(Cl)nc(C)nc32)c(C)c1
- activity change, negative = inhibition [1]: 4.04%
- activity change, negative = inhibition [2]: -2.02%
- activity change, negative = inhibition [3]: 8.52%
- activity change, negative = inhibition [4]: -28.6%
- activity change, negative = inhibition [5]: -2.18%

Structure (SMILES): CSc1ccc2c(c1)C(N1CCN(C)CC1)Cc1ccccc1S2 (stereo not drawn)
- activity change, negative = inhibition [1]: 9.47%
- activity change, negative = inhibition [2]: 11.9%
- activity change, negative = inhibition [3]: -0.762%
- activity change, negative = inhibition [4]: -73.2%
- activity change, negative = inhibition [5]: 0.757%

Structure (SMILES): COc1ccc(OC)c2c1cc1n2CC(C)(C(=O)NC2CCCCC2C)N(Cc2ccco2)C1=O (stereo not drawn)
- activity change, negative = inhibition [1]: -18.7%
- activity change, negative = inhibition [2]: -0.601%
- activity change, negative = inhibition [3]: -2.91%
- activity change, negative = inhibition [4]: -13.5%
- activity change, negative = inhibition [5]: -40%

Structure (SMILES): CCN(CC)CCCNC(=O)c1cc2n(n1)CC(C)(C(=O)NCc1ccc(F)cc1)N(C)C2=O (stereo not drawn)
- activity change, negative = inhibition [1]: 1.03%
- activity change, negative = inhibition [2]: 3.95%
- activity change, negative = inhibition [3]: 0.302%
- activity change, negative = inhibition [4]: 3.4%
- activity change, negative = inhibition [5]: 2.51%

Structure (SMILES): CC(=O)OC[C@H]1O[C@H](O[C@]2(CO)O[C@H](CO)[C@@H](OC(=O)/C=C/c3ccccc3)[C@@H]2O)[C@H](O)[C@@H](O)[C@@H]1O
- activity change, negative = inhibition [1]: -3.01%
- activity change, negative = inhibition [2]: -2.71%
- activity change, negative = inhibition [3]: 11%
- activity change, negative = inhibition [4]: -15.5%
- activity change, negative = inhibition [5]: -9.24%

Structure (SMILES): C[C@@H](NC(=O)[C@@H]1C[C@@H](NS(=O)(=O)c2cccs2)CCN1C(=O)c1ccco1)C(N)=O
- activity change, negative = inhibition [1]: -5.27%
- activity change, negative = inhibition [2]: -5.07%
- activity change, negative = inhibition [3]: -1.13%
- activity change, negative = inhibition [4]: -13.1%
- activity change, negative = inhibition [5]: -7.05%

Structure (SMILES): Cn1cc(S(=O)(=O)c2ccc(Cl)cc2)c2cccc(N3CCNCC3)c21
- activity change, negative = inhibition [1]: -7.98%
- activity change, negative = inhibition [2]: 2.4%
- activity change, negative = inhibition [3]: -11.1%
- activity change, negative = inhibition [4]: -20.7%
- activity change, negative = inhibition [5]: -8.09%

Structure (SMILES): Cc1nn2c(N3CCC(O)C3)cc(-c3ccccc3)nc2c1C (stereo not drawn)
- activity change, negative = inhibition [1]: -2.92%
- activity change, negative = inhibition [2]: -3.8%
- activity change, negative = inhibition [3]: -6.29%
- activity change, negative = inhibition [4]: -5.84%
- activity change, negative = inhibition [5]: -5.29%

Structure (SMILES): CC1(C(=O)NC2CCCCC2)Cn2c(cc3occc32)C(=O)N1C1CCCC1 (stereo not drawn)
- activity change, negative = inhibition [1]: 5.82%
- activity change, negative = inhibition [2]: 0.32%
- activity change, negative = inhibition [3]: 8.59%
- activity change, negative = inhibition [4]: 14.1%
- activity change, negative = inhibition [5]: 5.37%

Structure (SMILES): CC1=C[C@@H](CNC(=O)c2cnccn2)[C@H](C(C)C)C[C@H]1CC(=O)O
- activity change, negative = inhibition [1]: -4.9%
- activity change, negative = inhibition [2]: -2%
- activity change, negative = inhibition [3]: -0.408%
- activity change, negative = inhibition [4]: -6.43%
- activity change, negative = inhibition [5]: -5.14%

Structure (SMILES): Cc1cc(Nc2nc(-c3ccccc3)nc3ccccc23)n[nH]1
- activity change, negative = inhibition [1]: -13.6%
- activity change, negative = inhibition [2]: 4.74%
- activity change, negative = inhibition [3]: -2.15%
- activity change, negative = inhibition [4]: -17%
- activity change, negative = inhibition [5]: 1.88%

Structure (SMILES): Brc1cccc(-c2nnn3c2nc(NCC2CCCO2)c2ccccc23)c1 (stereo not drawn)
- activity change, negative = inhibition [1]: -2.28%
- activity change, negative = inhibition [2]: 1.6%
- activity change, negative = inhibition [3]: 2.25%
- activity change, negative = inhibition [4]: -3.35%
- activity change, negative = inhibition [5]: -5.57%

Structure (SMILES): Cc1ccc(N2C(=O)Cn3cccc3C2C(=O)NC2CCCCC2C)cc1 (stereo not drawn)
- activity change, negative = inhibition [1]: -0.771%
- activity change, negative = inhibition [2]: 1.01%
- activity change, negative = inhibition [3]: -2.91%
- activity change, negative = inhibition [4]: 4.49%
- activity change, negative = inhibition [5]: -4.18%

Structure (SMILES): O=C(Cn1ccc2cc(S(=O)(=O)N3CCCCC3)ccc21)NCc1ccc2c(c1)OCO2
- activity change, negative = inhibition [1]: 1.62%
- activity change, negative = inhibition [2]: 2.8%
- activity change, negative = inhibition [3]: 2.23%
- activity change, negative = inhibition [4]: -8.58%
- activity change, negative = inhibition [5]: -1.11%

Structure (SMILES): Cc1ccc(Cn2c(=O)c3ccccc3n3c(SCC(=O)Nc4ccc(Cl)cc4)nnc23)cc1
- activity change, negative = inhibition [1]: 6.71%
- activity change, negative = inhibition [2]: 0.406%
- activity change, negative = inhibition [3]: 13.5%
- activity change, negative = inhibition [4]: 5.34%
- activity change, negative = inhibition [5]: 7.01%

Structure (SMILES): O=C(c1ccc(C(F)(F)F)cc1)N1CCC2(CC1)COc1ccccc1NC2=O
- activity change, negative = inhibition [1]: -10.3%
- activity change, negative = inhibition [2]: -4.73%
- activity change, negative = inhibition [3]: -6.02%
- activity change, negative = inhibition [4]: -10.3%
- activity change, negative = inhibition [5]: -7.36%

Structure (SMILES): CNC(=O)c1noc([C@@H]2CC(F)(F)CN2Cc2cnn(C(C)C)c2)n1
- activity change, negative = inhibition [1]: -0.193%
- activity change, negative = inhibition [2]: -0.351%
- activity change, negative = inhibition [3]: 0.874%
- activity change, negative = inhibition [4]: -0.215%
- activity change, negative = inhibition [5]: -2.27%

Structure (SMILES): Cc1cc2c(cc3n2CC(C)(C(=O)NC2CCCCCCC2)N(CCC(C)C)C3=O)o1 (stereo not drawn)
- activity change, negative = inhibition [1]: -3.21%
- activity change, negative = inhibition [2]: 3.11%
- activity change, negative = inhibition [3]: 8.88%
- activity change, negative = inhibition [4]: -9.97%
- activity change, negative = inhibition [5]: -10.6%

Structure (SMILES): O=C(/C=C/c1ccc2ccccc2n1)c1ccncc1
- activity change, negative = inhibition [2]: 6.96%
- activity change, negative = inhibition [4]: -15.9%
- activity change, negative = inhibition [5]: 2.59%

Structure (SMILES): CCCCN1C(=O)c2cc(C(=O)NCCc3ccc(C)cc3)nn2CC1(C)C(=O)NC1CCCC1 (stereo not drawn)
- activity change, negative = inhibition [1]: 4.89%
- activity change, negative = inhibition [2]: 5.41%
- activity change, negative = inhibition [3]: 1.55%
- activity change, negative = inhibition [4]: -1.73%
- activity change, negative = inhibition [5]: 0.301%

Structure (SMILES): CSCC(=O)N[C@@H]1CN(Cc2cccnc2)C[C@H]1CN(C)C
- activity change, negative = inhibition [1]: -7.08%
- activity change, negative = inhibition [2]: -11.1%
- activity change, negative = inhibition [3]: -3.7%
- activity change, negative = inhibition [4]: -9.94%
- activity change, negative = inhibition [5]: -2.67%

Structure (SMILES): CC1(C(=O)NC2CCCCCCC2)Cn2c(cc3sccc32)C(=O)N1Cc1cccc(Cl)c1 (stereo not drawn)
- activity change, negative = inhibition [1]: 1.21%
- activity change, negative = inhibition [2]: 0%
- activity change, negative = inhibition [3]: 8.22%
- activity change, negative = inhibition [4]: 5.62%
- activity change, negative = inhibition [5]: 1.21%

Structure (SMILES): Cc1cc(N(C)C)ccc1-c1nc2ccc(-c3nc4ccc(N5CCN(C)CC5)cc4[nH]3)cc2[nH]1
- activity change, negative = inhibition [1]: -13.2%
- activity change, negative = inhibition [2]: -4.28%
- activity change, negative = inhibition [3]: -84.7%
- activity change, negative = inhibition [4]: -15.4%
- activity change, negative = inhibition [5]: -7.44%

Structure (SMILES): CCc1ccc(N2C(=O)c3cc(-c4ccco4)nn3CC2(C)C(=O)NC2CCCCCC2)cc1 (stereo not drawn)
- activity change, negative = inhibition [1]: -1.19%
- activity change, negative = inhibition [2]: 0%
- activity change, negative = inhibition [3]: 5.87%
- activity change, negative = inhibition [4]: -7.7%
- activity change, negative = inhibition [5]: -2.06%

Structure (SMILES): CCCN1C[C@H](CSC)C[C@@H]2c3cccc4[nH]cc(c34)C[C@H]21
- activity change, negative = inhibition [1]: -4.29% and -25.4%
- activity change, negative = inhibition [2]: -2.04% and 7.88%
- activity change, negative = inhibition [3]: -4.64% and -9.58%
- activity change, negative = inhibition [4]: -13.1% and -9.94%
- activity change, negative = inhibition [5]: -21.9% and -16.9%
